Experimental data from PubChem BioAssay AID1468 (National Center for Advancing Translational Sciences (NCATS), 2008).
Among all 280,000 compounds or so, about 1,100 (0.39%) were called active. Inconclusive means that the source gave no clear call. Such entries were picked first, then a sample of the others. Calls come from the whole dose curve; as a rule, active = well fitted inhibition curve with a large enough effect; inconclusive = small, poorly fitted or top-dose-only effect, or effect the other way; inactive = flat fitted curve, though single readings scatter. A potency beside an inconclusive call is a rough fit, not a confirmed value.

target: Microtubule-associated protein tau (Homo sapiens) (UniProt P10636); experiment: qHTS for Inhibitors of Tau Fibril Formation, Fluorescence Polarization; conditions: K18 P301L tau heparin fibrillization, Alexa594 FP, 6 h; series mostly up to 57.7 µM; note: nearly all actives have a fitted effect of over 55% in size
Sequence of UniProt P10636 (P10636 whole entry, looked up): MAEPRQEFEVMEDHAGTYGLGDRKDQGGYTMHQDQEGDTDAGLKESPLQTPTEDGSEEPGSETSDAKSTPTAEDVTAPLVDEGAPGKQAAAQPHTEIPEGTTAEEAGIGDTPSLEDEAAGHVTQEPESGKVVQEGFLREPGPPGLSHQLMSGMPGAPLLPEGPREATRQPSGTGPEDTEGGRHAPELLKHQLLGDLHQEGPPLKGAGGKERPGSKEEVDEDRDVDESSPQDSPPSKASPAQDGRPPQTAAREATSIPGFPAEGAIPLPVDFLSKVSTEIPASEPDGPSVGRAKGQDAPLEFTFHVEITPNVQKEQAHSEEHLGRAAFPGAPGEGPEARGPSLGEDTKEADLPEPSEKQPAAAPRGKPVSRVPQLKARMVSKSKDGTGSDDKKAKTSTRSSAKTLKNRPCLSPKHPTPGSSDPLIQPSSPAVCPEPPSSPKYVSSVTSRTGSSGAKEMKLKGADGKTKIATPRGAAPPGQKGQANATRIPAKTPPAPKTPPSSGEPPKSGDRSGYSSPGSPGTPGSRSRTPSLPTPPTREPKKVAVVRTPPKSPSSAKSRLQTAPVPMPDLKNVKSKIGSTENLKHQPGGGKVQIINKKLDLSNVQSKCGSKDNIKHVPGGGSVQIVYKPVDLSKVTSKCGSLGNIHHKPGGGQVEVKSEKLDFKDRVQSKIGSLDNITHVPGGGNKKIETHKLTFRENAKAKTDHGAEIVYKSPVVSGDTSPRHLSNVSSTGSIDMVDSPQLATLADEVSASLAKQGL
How it was run: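 Quantitative HTS format: compounds meet 15 uM recombinant K18 P301L tau and Alexa 594-tau tracer in 100 mM sodium acetate pH 7; 20 uM heparin triggers fibrillization at 37 C over 6 hr; FP gives the signal.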
Potency is the fitted concentration of half-maximal effect; tags give direction and shape of the fitted curve.

Potency, inconclusive:
COc1cccc(NC(=O)Cn2c(=O)n(CC3CCCO3)c(=O)c3ccccc32)c1 (configuration not stated) 7.08 µM [inhibitor, partial curve, poor fit], O=C(CN1c2ccccc2Sc2ccccc21)N/N=C/c1ccc([N+](=O)[O-])cc1 7.08 µM [activator, partial curve], CC(=O)Nc1ccc2nc(SCCOc3ccccc3)sc2c1 22.4 µM [inhibitor, partial curve], COc1ccc2sc(N(CCN(C)C)C(=O)/C=C/c3cccs3)nc2c1 39.8 µM [inhibitor, single point], COc1ccc(-n2c(=O)c3sc4ccccc4c3n(CC(=O)NCc3ccccc3)c2=O)cc1 31.6 µM [inhibitor, partial curve], CC(=C/c1ccccc1)/C=N/NC(=O)c1cccs1 39.8 µM [inhibitor, single point], Cn1c(Sc2ccc(Br)cc2)c(C=O)c2ccccc21 39.8 µM [inhibitor, single point], COc1ccc(Cl)cc1NC(=O)CSc1nc(-c2ccccc2)c2ccccc2n1 5.62 µM [inhibitor, partial curve], O=C(CN1CCOCC1)Nc1ccccc1-c1ccccc1 44.7 µM [inhibitor, single point], CCCOc1cccc(C(=O)NC(=S)Nc2cccc(NC(=O)c3ccccc3Cl)c2)c1 3.98 µM [inhibitor, full curve], Cc1csc2c(N3CCN(C(=S)Nc4ccc(C(F)(F)F)cc4)CC3)ncnc12 14.1 µM [inhibitor, single point], CC(=O)N1CCN(CC(=O)Nc2c(Cl)cccc2Cl)CC1 0.0562 µM [inhibitor, full curve, poor fit], O=S(=O)(/N=C(\Sc1ccc(Cl)cc1)c1ccccc1)c1ccccc1 28.2 µM [inhibitor, single point], COc1ccc(OC)c(NC(=O)CSc2nncc3ccc(OC)c(OC)c23)c1 8.91 µM [inhibitor, single point], COc1ccc2[nH]cc(CCNC(=O)c3cnn(-c4ccccc4Cl)c3C3CCN(C(=O)OC(C)(C)C)CC3)c2c1 2.82 µM [activator, single point], COc1ccc(-c2[nH]c(-c3cccc(OC)c3)nc2SCC(=O)NCc2ccco2)cc1 39.8 µM [activator, single point], Cc1ccc(NC(=O)CC2=NC(=O)C(CC(=O)Nc3ccccc3F)S2)cc1 (configuration not stated) 39.8 µM [inhibitor, single point], Cc1cc(C(=O)NNC(=O)Nc2ccccc2)no1 1.78 µM [activator, full curve], COc1ccc(C(c2c(O)nc(SC)n(C)c2=O)c2c(O)nc(SC)n(C)c2=O)cc1O 10 µM [inhibitor, partial curve], O=C(Nc1ccc(N2CCOCC2)c(Cl)c1)c1ccc(Br)o1 2 µM [activator, full curve, poor fit], CCOC(=O)c1c(NC(=O)C(C)Oc2ccc(Cl)c(C)c2)sc2c1CCCC2 (configuration not stated) 31.6 µM [inhibitor, partial curve, poor fit], CC(C)Cn1c(=O)c2ccccc2n2c(CCC(=O)Nc3ccc(F)c(F)c3)nnc12 39.8 µM [inhibitor, single point], CCc1cccc(C)c1N(C(=O)Cn1c(COC)nc2ccccc21)C(C)COC (configuration not stated) 0.501 µM [inhibitor, partial curve], Cc1ccc(S(=O)(=O)N2CCC(C(=O)Nc3ccc(Oc4ccccc4)cc3)CC2)cc1 15.8 µM [inhibitor, partial curve], CCn1cc([N+](=O)[O-])c(C(=O)N2N=C(c3ccc4ccccc4c3)CC2c2cc(Br)ccc2O)n1 (configuration not stated) 25.1 µM [inhibitor, single point], COc1cc(OC)cc(-c2cc3nc(C)c(CCC(=O)Nc4ccc(F)c(Cl)c4)c(C)n3n2)c1 3.98 µM [inhibitor, full curve], O=C1c2[nH]nc(-c3ccccc3O)c2C(c2ccc(Cl)cc2)N1CCc1ccccc1 (configuration not stated) 28.2 µM [inhibitor, partial curve], CC(C)c1ccc(/C=C(\C#N)c2nc(-c3cc4ccccc4oc3=O)cs2)cc1 1.41 µM [inhibitor, full curve], COCCN=c1scc(-c2ccccc2)n1/N=C/c1c[nH]c2ccccc12 1.12 µM [activator, partial curve, poor fit], CC(Sc1nnc(NCc2ccccc2)s1)C(=O)Nc1ccc2c(c1)C(=O)c1ccccc1C2=O (configuration not stated) 25.1 µM [activator, partial curve, poor fit], COC(=O)c1ccc(Nc2ncnc3c2cnn3-c2ccccc2)cc1 5.01 µM [inhibitor, full curve], Fc1ccc(N=c2ssnc2Cl)c(F)c1 35.5 µM [inhibitor, single point], COc1cccc(C(=O)Nc2ccc(-c3nnc(-c4ccco4)o3)cc2)c1 35.5 µM [inhibitor, single point], Cc1ccccc1OCCCSc1nc2ccccc2[nH]1 20 µM [inhibitor, single point], CN(C)CCNc1ncnc2c1sc1nc(-c3ccccc3)c3c(c12)CCCC3 22.4 µM [inhibitor, partial curve, poor fit], O=C1c2cccc3cccc(c23)C(=O)N1OS(=O)(=O)c1ccccc1 11.2 µM [inhibitor, partial curve], CCOc1ccc(/C=C/c2nc3ccccc3n2S(=O)(=O)c2cccc(Cl)c2)cc1 28.2 µM [inhibitor, partial curve], CCOc1ccc(C(=O)Nc2ccc3nc(SCC(=O)N(C)c4ccccc4)sc3c2)cc1 14.1 µM [inhibitor, partial curve], CCOC(=O)c1cc(-c2ccc(OC)cc2)n(CCC(=O)Nc2ccc(OC)cc2OC)c1C 44.7 µM [activator, single point], CCc1ccc(S(=O)(=O)c2cn(CC(=O)Nc3ccc(C)cc3)c3ccccc3c2=O)cc1 28.2 µM [inhibitor, partial curve], CCOC(=O)c1[nH]c2c(c1Cc1ccccc1)C(=O)CC(c1ccc(Cl)cc1)C2 (configuration not stated) 44.7 µM [inhibitor, single point], COCCOC(=O)c1c(C)n(S(=O)(=O)c2ccc(C)cc2)c2ccc(NS(=O)(=O)c3ccc(C)cc3)cc12 12.6 µM [inhibitor, partial curve], CC1(C)Cc2c(C#N)c(N)sc(=S)c2CO1 44.7 µM [inhibitor, single point], OC(CNCc1ccco1)Cn1c2ccc(Br)cc2c2cc(Br)ccc21 (configuration not stated) 10 µM [inhibitor, partial curve], C=CCc1cccc(/C=N/NC(=O)CCC(=O)Nc2ccc(C)cc2)c1O 12.6 µM [inhibitor, partial curve], Cc1ccc2[nH]c(CSc3nnc(NC(=O)COc4ccccc4)s3)cc(=O)c2c1 31.6 µM [inhibitor, single point], COc1ccc(C)cc1NC(=O)CC(NC(C)=O)c1ccccc1 (configuration not stated) 0.1 µM [inhibitor, full curve, poor fit], Cn1c(=O)c2c(nc(NCc3ccc4c(c3)OCO4)n2Cc2ccccc2F)n(C)c1=O 7.94 µM [activator, full curve], O=C(Nc1cccc(-c2cnc3ccccc3n2)c1)c1cccc(NC(=O)c2ccco2)c1 3.98 µM [inhibitor, full curve], O=[N+]([O-])c1ccc(-c2nc(-c3ccc(F)cc3)c(-c3ccncc3)[nH]2)cc1 2.82 µM [activator, single point]

Potency, inactive:
C=CCn1c(-c2csc(-c3ccc(Cl)cc3)n2)n[nH]c1=S, COc1ccccc1N1CCN(C(=O)c2cc(-c3ccc(Cl)cc3)on2)CC1, COc1ccc(/C=C(/C#N)C(=O)Nc2cccc([N+](=O)[O-])c2)cc1C(=O)O, C=CCCCCCCCCCCCc1ccco1, COc1cc(/C=N/N2C(=O)C3C4C=CC(CC4)C3C2=O)ccc1O (configuration not stated), NC(=S)N=Nc1c(O)[nH]c2ccc(F)cc12, Cc1ccc(NC(=S)N(CCN(C)C)C(C)c2cccnc2)cc1 (configuration not stated), O=C(CCc1ccc(O)cc1)c1c(O)cc(O)cc1O[C@@H]1O[C@H](CO)[C@@H](O)[C@H](O)[C@H]1O, CCOc1ccc(C(=O)N/N=C/c2ccccc2[N+](=O)[O-])cc1, COC(=O)[C@H](Cc1ccccc1)NC(=O)O[C@H]1C(=O)c2cc(OC)ccc2O[C@@H]1c1ccc(OC)c(Br)c1

Potency, active:
CC1CCN(S(=O)(=O)c2ccc3nc(Nc4cccc(C(F)(F)F)c4)ccc3c2)CC1 28.2 µM, CCCCN(CCCC)S(=O)(=O)c1ccc(NC(=O)c2cccs2)cc1 14.1 µM
